The text below walks through data of PubChem BioAssay AID463173 (ICCB-Longwood Screening Facility, Harvard Medical School, 2010).

Hit rate of the full screen: of about 52,000 compounds, about 4,300 (8.3%) were called active. Cut-off read from the data, not from the text of the source: active = survival mostly below about 52% (no sharp cut-off); inactive = mostly above about 56%. The list shows a part of the results.

For the assay, the system named is DeltatarO mutant. Briefly: S. aureus survival, RN4220 and DeltatarO strains – OD600, teichoic acid synthesis inhibitors, primary screen (AID 463173). The conditions noted are these: S. aureus RN4220 wild type/DeltatarO growth, OD600, 18 h, stronger effect = lower value, screened at 18.75 µg/mL (by protocol).
Regarding `COc1ccc(Cn2c(=O)c3cccnc3n(CC(=O)Nc3ccc(C)c(F)c3)c2=O)cc1`, the survival was inactive: 104%. The same measure for `O=C(c1ccc(CSc2nc3ccncc3n2Cc2ccc(F)cc2)cc1)N1CCCCCC1`: inactive: 71%; for `Cc1ccc(-c2nc3c4ccccc4[nH]c(=O)n3n2)cc1`: inactive: 60%; for `CCN(C(=O)/C=C/c1cc(OC)c(OC)c(OC)c1)C1CCCCC1`: inactive: 89%. Regarding `CCc1nc2ccc(C(=O)N3CCN(c4cccc(C)c4C)CC3)cc2nc1CC`, the survival was inactive: 76%. As for `O=C1CC(c2cccc(O)c2)c2c(nc(SCc3ccccc3F)[nH]c2=O)N1` (stereo not drawn), the survival is inactive: 106%.

In the case of `CCOc1ccc(C(=O)N(Cc2sccc2C)C2CCS(=O)(=O)C2)cc1` (stereo not drawn), the survival is inactive: 77%. The same measure for `CCOc1ccc(-c2cc(OC(=O)c3ccc(OC)cc3)c3c(C)oc(C)c3c(=O)c2)cc1`: inactive: 65%; for `COc1cc2nc(C3CCC3)n(NC(=O)COc3ccccc3)c(=O)c2cc1OC`: inactive: 92%.

For the molecule `C[C@H](NC(=O)OC(C)(C)C)c1nnc(SCc2c(F)cccc2Cl)o1`, the survival is inactive: 72%.

For `CCOC(=O)c1ccc(N2N=C(C(F)(F)F)CC2=O)cc1`, the survival is inactive: 47%. Then `CCc1ccc(NC(=O)Cn2nc3c4ccccc4n(Cc4ccccc4)cc-3c2=O)cc1`, with inactive: 83%; and `CCC(=O)Nc1nc(-c2ccc(C)c(C)c2)cs1`, with inactive: 78%. For the molecule `O=C(Nc1ccc(OC(F)(F)F)cc1)c1nc2ccccc2nc1N1CCCCC1`, the survival was inactive: 90%.

For the molecule `COc1cccc(NC(=O)CSc2nc3cc(OC)c(OC)cc3c3nc(-c4ccccc4)nn23)c1`, the survival is inactive: 76%. Consider `CCn1c2ccccc2c2cc(CN3CCN(Cc4ccccc4Cl)CC3)ccc21`, for which the survival was active: -1%. Then `COc1cc(OC)c(NC2(c3ccccc3)C(=O)c3ccccc3C2=O)cc1Cl`, with inactive: 70%; and `CCc1ccccc1NC(=O)Nc1ccc2c(c1)N(CC)C(=O)c1ccccc1S2`, with active: 41%; and `CN(C)C(=O)CN1CCC(N2CCCCC2)CC1`, with inactive: 96%.

For the molecule `CCOc1ccccc1CNC(=O)c1cc2n(n1)CCCN(Cc1ccc(C)cc1)C2=O`, the survival is inactive: 81%. Regarding `CCOc1ccc(NC(=O)CSc2nc(C)c(C(=O)Nc3ccccc3)c(-c3ccc(Cl)cc3)c2C#N)cc1`, the survival was inactive: 80%. As to `CCc1cccc(-n2c(C)nc3c(cnn3-c3ccc(C)c(C)c3)c2=O)c1`, the survival was active: -1%. Consider `Cc1cc(C)c2nc(N(Cc3cccnc3)C(=O)c3ccc(S(=O)(=O)N(C)C)cc3)sc2c1`, for which the survival was inactive: 90%. The same measure for `CC1=C(C(=O)Nc2ccc(C)cc2C)C(C(C)C)n2nc(SCc3ccccc3Cl)nc2N1` (stereo not drawn): inactive: 61%; for `CCOC(=O)n1c(SCC)nc2ccccc21`: inactive: 83%.

As for `Cc1sc2ncn(CC(=O)N3CCN(c4ccc(F)cc4)CC3)c(=O)c2c1S(=O)(=O)N1CCCCC1`, the survival is inactive: 81%. In the case of `Cc1ccc(S(=O)(=O)c2cn(CC(=O)Nc3ccc4c(c3)OCO4)c3ccccc3c2=O)cc1`, the survival was inactive: 60%. Then `Cc1cccc2sc(N(CCCN(C)C)C(=O)c3ccc(Cl)s3)nc12`, with inactive: 73%; and `Cc1ccc(Nc2nc3c(S(=O)(=O)c4ccccc4)nnn3c3ccsc23)c(C)c1`, with inactive: 66%.

For the molecule `Cc1cccc(NC(=O)Cn2nnc(C(=O)Nc3ccc(F)c(Cl)c3)c2N)c1`, the survival was inactive: 101%.

For `COc1cc(C2C(C(=O)OCC(C)C)=C(C)N=C3SCCC(=O)N32)ccc1OCc1ccccc1` (stereo not drawn), the survival is active: 46%.

For the molecule `COc1cccc(NC(=O)CSc2nc(=O)n(Cc3ccco3)c3c2CCC3)c1`, the survival was inactive: 90%. Turning to `COc1ccc2[nH]c(=O)c(CN(CCCN3CCOCC3)C(=O)Nc3ccccc3)cc2c1`, the survival was inactive: 105%. As to `CCCCNc1ncnc2c1nnn2C`, the survival is inactive: 78%.

In the case of `CCN1CCN(c2oc(-c3ccc(COc4ccc(C)cc4)o3)nc2C#N)CC1`, the survival was active: 38%. Turning to `CCCCNC(=O)c1ccc2c(c1)NC(=O)C(CS(=O)(=O)Cc1cccc(C)c1)N2` (stereo not drawn), the survival was inactive: 94%. The same measure for `COc1ccc2oc(-c3cccc(NC(=O)c4ccc(C#N)cc4F)c3)nc2c1`: inactive: 79%; for `COc1cccc(NC(=O)Cn2c(=O)n(-c3ccc(Cl)cc3)c(=O)c3oc4ccccc4c32)c1`: inactive: 56%.

Take `O=C(NC1CCCCC1)N1CC=C(c2ccccc2)CC1`: the survival was inactive: 114%. The same measure for `COc1cc(C(=O)Nc2ccc3[nH]c(=O)sc3c2)cc(OC)c1OC`: inactive: 82%; for `CC(C)C(=O)N1c2ncnn2C2(CCCCC2)[C@@H]2CCCC[C@@H]21`: inactive: 101%. For the molecule `CC1=C(C(=O)Nc2cccnc2)C(c2cccc(F)c2)n2nc(SCc3ccccc3)nc2N1` (stereo not drawn), the survival was inactive: 85%. Then `CC(C)Cn1c(=O)c2sccc2n2c(CCCC(=O)NCCc3ccccc3)nnc12`, with inactive: 94%; and `COc1cccc(C(=O)NCC(=O)OCc2cc(=O)n3c(C)csc3n2)c1`, with inactive: 85%. The same measure for `CN1CCN(CC(=O)N2CCCC2=O)CC1`: inactive: 108%; for `COc1ccc(C2CC(=O)N(Cc3ccc(F)cc3)c3ccccc3S2)cc1` (stereo not drawn): active: 28%; for `Cc1ccc(S(=O)(=O)N2CCN(Cc3noc(CCC(=O)N4CCCCC4)n3)CC2)c(C)c1`: inactive: 89%. The same measure for `C[n+]1ccc(/C=C/c2ccc(N3CCCC3)o2)cc1`: inactive: 99%; for `Oc1ccccc1C1OC2CCCCC2C2=CCCCC21` (stereo not drawn): active: 34%; for `Cn1c(C(=O)NCc2ccccc2F)cc2oc3ccccc3c21`: inactive: 55%. As to `CCN1CCN(c2cc3c(cc2F)c(=O)c(S(=O)(=O)c2ccc(OC)cc2)cn3CC)CC1`, the survival is inactive: 84%. The same measure for `Cc1c(C(=O)Nc2cccc(C(F)(F)F)c2)sc2nc3n(c(=O)c12)CCCC3`: inactive: 69%; for `COc1cccc2sc(N(Cc3cccnc3)C(=O)Cc3ccccc3)nc12`: inactive: 80%. As for `O=C(c1ccco1)n1nc(-c2ccccc2)nc1NCc1ccc(F)cc1`, the survival is inactive: 65%. Then `Cc1nc2ccc(S(=O)(=O)CCC(=O)Nc3ccc(C)c(C)c3)cc2s1`, with inactive: 107%; and `CCN1C(=O)C2C(c3ccc(O)cc3)NC(CO)(C(=O)OC)C2C1=O` (stereo not drawn), with inactive: 82%. Turning to `CCOC(=O)c1c(-c2ccccc2)csc1NC(=O)c1cc(-c2ccc(Br)cc2)on1`, the survival is inactive: 57%. Then `COCCCNC(=O)c1sc2nc3n(c(=O)c2c1C)CCC3`, with inactive: 91%.
